# Test results published in the supplement of paper PMC8728848.
# The list shows a part of the results.
# B1: AAL (Agrocybe aegerita), Q6WY08 (protein)
# chain: MQGVNIYNISAGTSVDLAAPVTTGDIVTFFSSALNLNAGAGNPNNTTLNLFAENGAYLLHIAHRLQENVIIFNSRQPDGPWLVEQRVSDVANQFAGIDGKAMVTVFDHGDKYQVVINEKTVIQYTKQISGLTLSLSYNATEETSIFSTVVEAVTYTGLALEHHHHHH
# Assays:
# Test in all cases: glycan array binding signal (z-score within array); higher = stronger binding
# Settings in all cases: glycan notation: IUPAC condensed, linker removed; mutation: F63H
# [1] = target: GlcNAc(b1-3)Gal(b1-4)GlcNAc(b1-3)Gal(b1-4)GlcNAc(b1-3)Gal(b1-4)GlcNAc(b1-3)Gal(b1-4)GlcNAc(b1-2)[GlcNAc(b1-3)Gal(b1-4)GlcNAc(b1-3)Gal(b1-4)GlcNAc(b1-3)Gal(b1-4)GlcNAc(b1-3)Gal(b1-4)GlcNAc(b1-6)]Man(a1-6)[GlcNAc(b1-3)Gal(b1-4)GlcNAc(b1-3)Gal(b1-4)GlcNAc(b1-3)Gal(b1-4)GlcNAc(b1-3)Gal(b1-4)GlcNAc(b1-2)Man(a1-3)]Man(b1-4)GlcNAc(b1-4)[Fuc(a1-6)]GlcNAc
# Summary of the method: (§1)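 Glycan array data came from 3228 arrays in the Consortium for Functional Glycomics database, and only arrays with an available protein sequence were kept. Glycan names were put into IUPAC-condensed notation, and columns mapping to the same glycan were averaged. The binding signal is a within-array Z-score, averaged across arrays of one protein sequence run at different concentrations or buffers and across linkers. A negative Z-score can be read as non-binding.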
# [2] = target: GlcNAc(b1-3)Gal(b1-4)GlcNAc(b1-3)Gal(b1-4)GlcNAc(b1-3)GalNAc
# Summary of the method: as §1
# [3] = target: GlcNAc(b1-3)Gal(b1-4)GlcNAc(b1-3)GalNAc
# Summary of the method: as §1
# [4] = target: GlcNAc(b1-3)Gal(b1-4)GlcNAc(b1-3)[GlcNAc(b1-3)Gal(b1-4)GlcNAc(b1-3)]GalNAc
# Summary of the method: as §1
# [5] = target: GlcNAc(b1-3)Gal(b1-4)GlcNAc(b1-6)[Gal(b1-3)]GalNAc
# Summary of the method: as §1
# [6] = target: GlcNAc(b1-3)Gal(b1-4)GlcNAc(b1-6)[GlcNAc(b1-3)Gal(b1-3)]GalNAc
# Summary of the method: as §1
# [7] = target: GlcNAc(b1-3)Gal(b1-4)GlcNAc(b1-6)[GlcNAc(b1-3)]Gal(b1-4)GlcNAc
# Summary of the method: as §1
# GlcNAc(b1-3)GalNAc = target: GlcNAc(b1-3)GalNAc
# Summary of the method: as §1
# GlcNAc(b1-3)Man = target: GlcNAc(b1-3)Man
# Summary of the method: as §1
# [8] = target: GlcNAc(b1-3)[GlcNAc(b1-4)][GlcNAc(b1-6)]GlcNAc
# Summary of the method: as §1
# [9] = target: GlcNAc(b1-3)[GlcNAc(b1-6)]Gal(b1-4)GlcNAc
# Summary of the method: as §1
# [10] = target: GlcNAc(b1-3)[GlcNAc(b1-6)]GalNAc
# Summary of the method: as §1
# [11] = target: GlcNAc(b1-4)Gal(b1-4)GlcNAc
# Summary of the method: as §1
# GlcNAc(b1-4)GlcNAc = target: GlcNAc(b1-4)GlcNAc
# Summary of the method: as §1
# [12] = target: GlcNAc(b1-4)GlcNAc(b1-4)GlcNAc
# Summary of the method: as §1
# [13] = target: GlcNAc(b1-4)GlcNAc(b1-4)GlcNAc(b1-4)GlcNAc(b1-4)GlcNAc
# Summary of the method: as §1
# [14] = target: GlcNAc(b1-4)GlcNAc(b1-4)GlcNAc(b1-4)GlcNAc(b1-4)GlcNAc(b1-4)GlcNAc
# Summary of the method: as §1
# [15] = target: GlcNAc(b1-4)[GlcNAc(b1-6)]GalNAc
# Summary of the method: as §1
# [16] = target: GlcNAc(b1-6)Gal(b1-4)GlcNAc
# Summary of the method: as §1
# GlcNAc(b1-6)GalNAc = target: GlcNAc(b1-6)GalNAc
# Summary of the method: as §1
# [17] = target: GlcNAc6S(b1-3)Gal(b1-4)GlcNAc
# Summary of the method: as §1
# Kdn(a2-3)Gal(b1-3)GalNAc = target: Kdn(a2-3)Gal(b1-3)GalNAc
# Summary of the method: as §1
binder,measurement,setting,value
B1,glycan array binding signal (z-score),[1],0.818
same,glycan array binding signal (z-score),[2],-0.233
same,glycan array binding signal (z-score),[3],-0.029
same,glycan array binding signal (z-score),[4],0.58
same,glycan array binding signal (z-score),[5],-0.371
same,glycan array binding signal (z-score),[6],-0.169
same,glycan array binding signal (z-score),[7],-0.04
same,glycan array binding signal (z-score),GlcNAc(b1-3)GalNAc,0.053
same,glycan array binding signal (z-score),GlcNAc(b1-3)Man,-0.511
same,glycan array binding signal (z-score),[8],-0.568
same,glycan array binding signal (z-score),[9],-0.322
same,glycan array binding signal (z-score),[10],-0.374
same,glycan array binding signal (z-score),[11],-0.34
same,glycan array binding signal (z-score),GlcNAc(b1-4)GlcNAc,0.059
same,glycan array binding signal (z-score),[12],-0.3
same,glycan array binding signal (z-score),[13],0.019
same,glycan array binding signal (z-score),[14],-0.297
same,glycan array binding signal (z-score),[15],-0.448
same,glycan array binding signal (z-score),[16],-0.101
same,glycan array binding signal (z-score),GlcNAc(b1-6)GalNAc,-0.101
same,glycan array binding signal (z-score),[17],0.168
same,glycan array binding signal (z-score),Kdn(a2-3)Gal(b1-3)GalNAc,0.108
